Assay results: the supplement of paper PMC10369915
This is one part of the list. No stated cut-off is given here; in the data, active = 3.2 or more and inactive = the rest. Most of these values are background signal.

B1: SRC_Y522 (peptide)
chain: AFLEDYFTSTE
B2: SRC_Y530 (peptide)
chain: STEPQYQPGEN
B3: SRC_Y530_E527K (peptide)
chain: STKPQYQPGEN
B4: SRD5A2_Y91_V89L (peptide)
chain: LFCLHYFHRTF
B5: SRPK2_Y427 (peptide)
chain: ESDYTYSSSYE
B6: SRPK2_Y427_YF (peptide)
chain: ESDFTYSSSFE
B7: SRRT_Y798_Q793K (peptide)
chain: KGLMPYGQPRP
B8: SSX7_Y48_L43S_YF (peptide)
chain: SEKISYVFMKR
B9: SSX7_Y48_YF (peptide)
chain: LEKISYVFMKR
B10: ST3GAL5_Y99 (peptide)
chain: MKKMHYVDPDH
B11: ST3GAL6_Y306 (peptide)
chain: MNKNAYHNVTA
B12: STAM_Y371 (peptide)
chain: EALSLYTKLMN
B13: STAM_Y371_E366K (peptide)
chain: KALSLYTKLMN
B14: STAMBP_Y36 (peptide)
chain: IPPRRYFRSGV
B15: STAT1_Y170_D165G (peptide)
chain: GLQDEYDFKCK
B16: STAT1_Y170_D165H (peptide)
chain: HLQDEYDFKCK
B17: STAT1_Y203_M202I (peptide)
chain: LLKKIYLMLDN
B18: STAT1_Y668 (peptide)
chain: PLKYLYPNIDK

Each binder was assayed against SHP2 C-SH2 domain E139D (assay: enrichment score (SH2-bound / input frequency) (ratio); bacterial display of known human phosphotyrosine sites (pTyr-Var adds point mutants) read by sequencing; higher = stronger binding; tyrosines were phosphorylated by kinases first). Conditions: peptide library: pTyr-Var.
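Further: displayed peptides selected on beads carrying the immobilized SH2 domain, with library peptides lacking any tyrosine serving as negative controls.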

Enrichment score, active:
B4 3.47

Enrichment score, inactive:
B1 1.47, B2 0.323, B3 0.616, B5 0.506, B6 0.549, B7 0.995, B8 0.481, B9 1.2, B10 0.578, B11 0.674, B12 0.899, B13 1.14, B14 0.221, B15 0.932, B16 1.58, B17 1.69, B18 0.891

These binders were tested against SHP2 C-SH2 domain wild-type in the same assay as above. Conditions: peptide library: pTyr-Var.

Enrichment score, active:
B4 4.26

Enrichment score, inactive:
B1 1.15, B2 0.391, B3 0.513, B5 0.451, B6 0.711, B7 0.625, B8 0.666, B9 1.3, B10 0.653, B11 0.531, B12 1.58, B13 2.22, B14 0.285, B15 0.621, B16 1.12, B17 1.57, B18 0.863

The binders below were run against SHP2 N-SH2 domain L43F in the same assay as above. Conditions: peptide library: pTyr-Var.

Enrichment score, inactive:
B1 1.18, B2 0.301, B3 0.561, B5 0.4, B6 0.712, B7 0.714, B8 0.619, B9 0.98, B10 0.873, B11 0.66, B12 0.831, B13 0.918, B14 0.336, B15 0.641, B16 1.35, B17 1.59, B18 2.03

Enrichment score, active:
B4 3.85

Each binder was assayed against SHP2 N-SH2 domain T42A in the same assay as above. Conditions: peptide library: pTyr-Var.

Enrichment score, inactive:
B1 1.41, B2 0.323, B3 0.58, B4 2.58, B5 0.529, B6 0.545, B7 0.655, B8 0.659, B9 1.31, B10 0.713, B11 0.51, B12 1.25, B13 2.47, B14 0.157, B15 0.565, B16 0.738, B17 1.45, B18 2.07

The binders below were run against SHP2 N-SH2 domain T52S in the same assay as above. Conditions: peptide library: pTyr-Var.

Enrichment score, inactive:
B1 1.31, B2 0.332, B3 0.582, B4 2.99, B5 0.465, B6 0.715, B7 0.792, B8 0.579, B9 1.04, B10 0.996, B11 0.576, B12 0.662, B13 1.09, B14 0.232, B15 0.738, B16 1.08, B17 1.41, B18 1.89

The binders below were run against SHP2 N-SH2 domain wild-type in the same assay as above. Conditions: peptide library: pTyr-Var.

Enrichment score, inactive:
B1 1.15, B2 0.428, B3 0.535, B5 0.483, B6 0.541, B7 0.95, B8 0.543, B9 1.02, B10 0.626, B11 0.765, B12 0.95, B13 1.17, B14 0.289, B15 0.735, B16 1.64, B17 1.29, B18 1.16

Enrichment score, active:
B4 4.07
